What was measured:
[1] = molecular target: the molecule itself; experiment: co-IP; HEK293T co-transfected with FLAG- and myc-tagged copies; lysis in 0.5% IPEGAL, 50 mM Tris pH 7.4, 150 mM NaCl, 1 mM EDTA; anti-FLAG M2 magnetic beads, 3 hr, 4°C; quantitative immunoblot with anti-myc
[2] = molecular target: the molecule itself; experiment: native gel or EMSA; blue native PAGE (4-16% Bis-Tris) of lysates of transfected HEK293T made with 1% digitonin; immunoblot with anti-FLAG
[3] = molecular target: the molecule itself; experiment: FRET or BRET; FRET index and FLIM of the donor YFP in living HEK293T cells transiently co-transfected with a YFP-tagged and an mCherry-tagged copy; free mCherry with the YFP copy as background; Fluorobrite DMEM

Row | Protein | decrease of co-immunoprecipitation relative to WT [1] [%] | decrease of the 480 kilodalton oligomer relative to WT [2] [%] | decrease in YFP (donor) lifetime [3] [picoseconds]
1 | IFITM3 G95L fused with amino-terminal FLAG or myc (natural protein, interferon-induced transmembrane protein 3 (IFITM3), human, with G95L; Two differently tagged copies, each with only one of the two tags; Blue native PAGE used the FLAG copy alone; also called G95L-FLAG; G95L-myc; source: HEK293T, transiently transfected, in lysate; not shown: FLAG (on the bait copy), N-terminal, kept; myc (on the prey copy), N-terminal, kept) not shown | ~50 | ~50 | –
2 | IFITM3 G91L fused with YFP or mCherry at the amino terminus (natural protein, interferon-induced transmembrane protein 3 (IFITM3), human, with G91L; Two differently tagged copies, each with only one of the two fluorescent proteins; also called G91L-YFP; G91L-mCherry; source: HEK293T, transiently transfected, in living cells; not shown: YFP (on the donor copy), N-terminal, kept; mCherry (on the acceptor copy), N-terminal, kept) not shown | – | – | ~225
3 | IFITM3 G95L fused with YFP or mCherry at the amino terminus (natural protein, interferon-induced transmembrane protein 3 (IFITM3), human, with G95L; Two differently tagged copies, each with only one of the two fluorescent proteins; Number and Brightness analysis used the mCherry copy alone; also called G95L-YFP; G95L-mCherry; source: HEK293T, transiently transfected, in living cells; not shown: YFP (on the donor copy), N-terminal, kept; mCherry (on the acceptor copy), …) not shown | – | – | ~70
